From patent US20050196808A1 (published 2005)
Substitutions are numbered along the chain they refer to. These are yes or no findings as the source states them, for the method shown. For part of these data: In cells and extracts the contact can be indirect. Some entries that bind do so weakly or less than the wild type. For part of these data: Tags and fused reporters may be left off the sequences shown.

Sequences of proteins named here, by UniProt entry; tags and fusion partners are left off. A change or cut given only in a name is not applied to a line headed by its entry.
UniProt P53350: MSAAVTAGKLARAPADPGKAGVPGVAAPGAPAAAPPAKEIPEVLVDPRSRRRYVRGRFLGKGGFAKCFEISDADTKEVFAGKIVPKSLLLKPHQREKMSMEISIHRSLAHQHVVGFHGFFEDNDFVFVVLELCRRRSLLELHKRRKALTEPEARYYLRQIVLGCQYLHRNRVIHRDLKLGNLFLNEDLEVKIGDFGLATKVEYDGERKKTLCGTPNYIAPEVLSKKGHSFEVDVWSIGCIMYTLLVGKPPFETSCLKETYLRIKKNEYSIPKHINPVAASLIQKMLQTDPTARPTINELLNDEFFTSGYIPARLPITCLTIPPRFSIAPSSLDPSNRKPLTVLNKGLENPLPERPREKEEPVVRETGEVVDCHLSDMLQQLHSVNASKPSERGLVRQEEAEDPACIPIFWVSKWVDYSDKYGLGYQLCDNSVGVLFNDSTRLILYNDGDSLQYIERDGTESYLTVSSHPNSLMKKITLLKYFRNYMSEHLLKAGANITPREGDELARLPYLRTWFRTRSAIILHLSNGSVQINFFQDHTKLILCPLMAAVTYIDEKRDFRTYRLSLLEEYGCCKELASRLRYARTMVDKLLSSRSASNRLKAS

Key:
[1] = target: T1, PoloBoxtide with Ser at pThr-1 replaced with Gly; test: condition: no detectable binding for a Plk1 PBD concentration of at least 150 µM; ITC
T1 sequence (peptide, phosphothreonine at 8): MAGPMQGTPLNGAKK

[2] = target: T2, PoloBoxtide with Ser at pThr-1 replaced with Cys; test: as above
T2 sequence (peptide, phosphothreonine at 8): MAGPMQCTPLNGAKK

[3] = target: T3, PoloBoxtide with Ser at pThr-1 replaced with Ala; test: as above
T3 sequence (peptide, phosphothreonine at 8): MAGPMQATPLNGAKK

[4] = target: T4, PoloBoxtide with Ser at pThr-1 replaced with Thr; test: as above
T4 sequence (peptide, phosphothreonine at 8): MAGPMQTTPLNGAKK

[5] = target: T5, PoloBoxtide with phosphotyrosine substituted for phosphothreonine; test: condition: no detectable binding by ITC for a Plk-1 PBD concentration of at least 150 µM; ITC
T5 sequence (peptide, phosphotyrosine at 8): MAGPMQSYPLNGAKK

[6] = target: T6, HA-tagged Cdc25C Thr130Ala (human) (UniProt P30307); test: GST pull-down from nocodazole-arrested transfected HeLa lysates, blot α-HA
T6 sequence (mitotically phosphorylated (incompletely), looked up): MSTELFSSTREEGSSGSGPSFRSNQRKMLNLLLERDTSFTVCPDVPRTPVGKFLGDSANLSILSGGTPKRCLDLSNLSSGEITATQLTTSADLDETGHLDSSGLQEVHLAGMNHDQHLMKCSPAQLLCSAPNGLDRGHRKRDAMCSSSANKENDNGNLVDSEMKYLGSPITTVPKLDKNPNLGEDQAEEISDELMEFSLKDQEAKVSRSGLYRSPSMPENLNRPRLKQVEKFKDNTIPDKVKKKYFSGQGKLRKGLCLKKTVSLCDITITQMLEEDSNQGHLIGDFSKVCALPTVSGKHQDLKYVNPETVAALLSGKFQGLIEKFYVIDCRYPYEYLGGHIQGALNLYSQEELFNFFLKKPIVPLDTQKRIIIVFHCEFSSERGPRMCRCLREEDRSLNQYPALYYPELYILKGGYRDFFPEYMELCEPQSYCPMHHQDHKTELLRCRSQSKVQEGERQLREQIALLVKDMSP

[7] = target: T7, HA-tagged Cdc25C Ser129Val (human) (UniProt P30307); test: as above
T7 sequence (mitotically phosphorylated (incompletely), looked up): T6 sequence (mitotically phosphorylated (incompletely), looked up) with S129V, A130T

[8] = target: T6, HA-tagged Cdc25C Thr130Ala (human); test: GST pull-down from transfected nocodazole-arrested HeLa cells, anti-HA blot
[9] = target: T7, HA-tagged Cdc25C Ser129Val (human); test: as above

Row | binding [1] | binding [2] | binding [3] | binding [4] | binding [5] | binding [6] | binding [7] | binding [8] | binding [9] | Substance
1 | no binding | no binding | no binding | no binding | no binding | – | – | – | – | Plk-1 Polo-box Domain (PBD, residues 326-603) (from UniProt P53350 326-603)
2 | – | – | – | – | – | binds | binds | binds | binds | GST-Plk-1 PBD (residues 326-603) (from UniProt P53350 326-603)
